PubChem BioAssay AID463173 (ICCB-Longwood Screening Facility, Harvard Medical School, 2010)
About 4,300 (8.3%) of roughly 52,000 compounds were called active. Cut-off read from the data, not from the text of the source: active = survival mostly below about 52% (no sharp cut-off); inactive = mostly above about 56%. Some of the results follow.

tested on: DeltatarO mutant; assay: growth inhibition of S. aureus wild type versus tarO mutant, primary screen, teichoic acid synthesis inhibitors, RN4220, OD600 (AID 463173); settings: OD600, 18 h, active compounds read low, screened at 18.75 µg/mL (by protocol)

| SMILES | survival |
| --- | --- |
| O=C1OC(Nc2ccccn2)c2ccccc21 (stereo unspecified) | inactive: 42% |
| Cc1ccc(CSC2=Nc3ccccc3C3=NC(CCC(=O)NCCc4ccccc4)C(=O)N23)cc1 (stereo unspecified) | inactive: 80% |
| COC(=O)c1cc2occc2n1Cc1ccc(F)cc1Cl | active: 30% |
| Cc1ccc(NC(=O)CN2C(=O)CSc3ccc(S(=O)(=O)N(C)C)cc32)cc1C | inactive: 69% |
| O=c1[nH]c2cc3c(cc2cc1CN(Cc1nnnn1CCc1ccccc1)C1CCCC1)OCCO3 | inactive: 65% |
| Cc1ccc(-c2nn(CCC(=O)Nc3ccc(Cl)c(Cl)c3)c(=O)c3ccccc23)cc1 | inactive: 53% |
| CCOc1cc(C2C(C(N)=O)=C(C)Nc3ncnn32)cc(Br)c1O (stereo unspecified) | inactive: 81% |
| CN(C)CCNc1ccc(Cl)nn1 | inactive: 96% |
| Cc1ccc(C(=O)NCCSc2c(C)[nH]c3ccccc23)cc1C | inactive: 55% |
| CCOC(=O)C1CCN(C(=O)c2ccc(C)cc2)CC1 | inactive: 97% |
| Cc1ccc2c(c1)-c1onc(C(=O)N3CCN(c4cc(C)ccc4C)CC3)c1CO2 | inactive: 66% |
| Cc1cc(C)n(-c2nc3cc(Cl)ccc3nc2N2CCN(c3cccc(C)c3C)CC2)n1 | active: -6% |
| N#Cc1cccc(NC(=O)Nc2cccn(Cc3ccccc3)c2=O)c1 | inactive: 81% |
| COc1ccccc1CNS(=O)(=O)c1c(C(=O)N2CCC(C)CC2)c(C)n(C)c1C | inactive: 100% |
| Cc1ccc(CCNC(=O)Cn2ncc3c([nH]c4ccccc43)c2=O)cc1 | inactive: 102% |
| COC(=O)C1C(=O)/C(=C/N(C)C)C(=O)CC1(C)C (stereo unspecified) | inactive: 101% |
| Oc1c(C(c2ccc(F)cc2)N2CCCC2)sc2nc(-c3ccco3)nn12 (stereo unspecified) | inactive: 83% |
| Cc1ccc(S(=O)(=O)c2cn(C)c3cc(N4CCOCC4)c(F)cc3c2=O)c(C)c1 | inactive: 75% |
| COc1ccc(N2CCN(c3ncnc4c3nc3n4CCCCC3)CC2)cc1 | inactive: 100% |
| Cc1ccc(CCNC(=O)C2COc3ccccc3C2)cc1 (stereo unspecified) | inactive: 74% |
| Cc1ccc(Cl)cc1-n1c(=O)c2sc3ccccc3c2n(CC(=O)NC2CCCC2)c1=O | active: 13% |
| O=C(c1cccs1)N1CCN(C(=O)c2cccs2)CC1 | inactive: 105% |
| COc1ccc(C2(CNC(=O)C(=O)Nc3ccc(C)c(Cl)c3)CCCC2)cc1OC | inactive: 68% |
| CCN(CC)S(=O)(=O)c1nnc(NC(=O)COc2ccccc2)s1 | inactive: 100% |
| CC(=O)c1ccc(N2C(=O)N(Cc3ccc(F)cc3)c3ccccc3S2(=O)=O)cc1 | inactive: 62% |
| CC(C)(C)OC(=O)N1CCC(c2c(C(=O)NCCN3CCOCC3)cnn2-c2cccc(F)c2)CC1 | inactive: 109% |
